Counter-ions that a name gives are not always drawn. Like-named read-outs stand apart in the source and are kept apart here.
Key:
[1] = tested on: cultured bloodstream T. brucei (strain 427); settings: Supplementary Table 1; compound 0.5 mM; percentage of controls in the absence of compound; mean ± SD (n=3) or SE (n=2)
[2] = tested on: cultured bloodstream T. brucei (strain 427); assay: microbe, parasite or virus in culture; settings: Trypanosoma brucei
[3] = read-out: T. brucei Alamar Blue

SMILES | viability at 500 µM [2, 3] | other results
Cc1cc(N)ccc1C(C)C.Cl [compound 497, 4‐isopropyl‐3‐methylaniline hydrochloride] |  | T. brucei Alamar Blue [1]: 30.1 ± 9 percentage of controls
Cc1ccc(C#N)c(=O)[nH]1 [compound 109, 6‐methyl‐2‐oxo‐1,2‐dihydropyridine‐3‐carbonitrile] |  | T. brucei Alamar Blue [1]: 108.6 ± 5.1 percentage of controls
CN(N)c1cc(C(F)(F)F)ccn1 [compound 554, 2‐(1‐methylhydrazino)‐4‐(trifluoromethyl)pyridine] |  | T. brucei Alamar Blue [1]: 96.3 ± 4.3 percentage of controls
CC1(C)CC(=O)CC(C)(C)N1 [compound 228, 2,2,6,6‐tetramethyltetrahydro‐4(1H)‐pyridinone] |  | T. brucei Alamar Blue [1]: 98.9 ± 16.8 percentage of controls
CNCc1nn(C)c2ccccc12 [compound 401, N‐methyl‐N‐[(1‐methyl‐1H‐indazol‐3‐yl)methyl]amine] |  | T. brucei Alamar Blue [1]: 59.8 ± 8.8 percentage of controls
OCc1ccc(Cn2cccn2)cc1 [compound 529, [4‐(1H‐pyrazol‐1‐ylmethyl)phenyl]methanol] |  | T. brucei Alamar Blue [1]: 78.1 ± 10.3 percentage of controls
CNCc1ccnc(N2CCCCC2)c1 [compound 671, N‐methyl‐N‐[(2‐piperidin‐1‐ylpyridin‐4‐yl)methyl]amine] |  | T. brucei Alamar Blue [1]: 27.3 ± 6.8 percentage of controls
CCOC(=O)c1sc(Cl)nc1C [compound 672, ethyl 2‐chloro‐4‐methyl‐1,3‐thiazole‐5‐carboxylate] |  | T. brucei Alamar Blue [1]: 87.2 ± 12.5 percentage of controls
Cn1ncc(CO)c1-c1ccccc1 [compound 530, (1‐methyl‐5‐phenyl‐1H‐pyrazol‐4‐yl)methanol] |  | T. brucei Alamar Blue [1]: 66.6 ± 15.6 percentage of controls
N#CCCNCC1CCCO1 (stereo not shown) [compound 224, 3‐[(tetrahydrofuran‐2‐ylmethyl)amino]propanenitrile] |  | T. brucei Alamar Blue [1]: 103.3 ± 15.4 percentage of controls
Cc1nn(C)c2sc(CO)cc12 [compound 467, (1,3‐dimethyl‐1H‐thieno[2,3‐c]pyrazol‐5‐yl)methanol] |  | T. brucei Alamar Blue [1]: 65.6 ± 13.2 percentage of controls
COC(=O)c1scc(C)c1N [compound 354, methyl 3‐amino‐4‐methylthiophene‐2‐carboxylate] |  | T. brucei Alamar Blue [1]: 81.3 ± 9.1 percentage of controls
Cc1nccc(-c2cccc(N)c2)n1 [compound 493, 3‐(2‐methylpyrimidin‐4‐yl)aniline] | 72.2 ± 9.4% | 
O=C(O)c1ccc(-n2cccc2)cc1 [compound 512, 4‐(1H‐pyrrol‐1‐yl)benzoic acid] | 42.1 ± 22.9% | 
OCc1ccc2ncccc2c1 [compound 255, 6‐quinolinylmethanol] | 48.1 ± 12% | 
Oc1nc2ccc(Cl)cc2o1 [compound 342, 6‐chloro‐1,3‐benzoxazol‐2‐ol] | 111 ± 3.1% | 
O=C(O)C1CCCO1 (stereo not shown) [compound 42, tetrahydro‐2‐furancarboxylic acid] | 108 ± 16.4% | 
N#Cc1c(N)cccc1Cl [compound 210, 2‐amino‐6‐chlorobenzonitrile] | 93.5 ± 7.9% | 
CCOC(=O)C1CCNCC1 [compound 245, ethyl piperidine‐4‐carboxylate] | 93.2 ± 7.2% | 
O=C(O)c1c[nH]c2ccccc12 [compound 273, 1H‐indole‐3‐carboxylic acid] | 88.6 ± 8.8% | 
Cc1cccc2c1NCCC2 [compound 166, 8‐methyl‐1,2,3,4‐tetrahydroquinoline] | 55.8 ± 21.7% | 
Nc1cccc(N)c1 [compound 461, benzene‐1,3‐diamine dihydrochloride] |  | viability at 500 µM ([2]; read-out: T. brucei Alamar Blue, Supplementary Table 1, compound 0.5 mM, percentage of controls in the absence of compound, mean ± SD (n=3) or SE (n=2)): 97.3 ± 16.9%
O=C(O)c1cc2ccccc2[nH]1 [compound 275, 1H‐indole‐2‐carboxylic acid] | 83 ± 15.6% | 
OCc1ccnc(N2CCCC2)c1 [compound 438, (2‐pyrrolidin‐1‐ylpyrid‐4‐yl)methanol] | 73.4 ± 14% | 
NCc1ccc(C(F)(F)F)cc1 [compound 390, 4‐(trifluoromethyl)benzylamine] | 24 ± 4.6% | 
NCc1cc(Cl)cc(Cl)c1 [compound 405, 3,5‐dichlorobenzylamine] | 30.8 ± 5.6% | 

SMILES | viability at 500 µM [2, 3] | other results
Cn1ccc(N)n1 [compound 8, 1‐methyl‐1H‐pyrazol‐3‐amine] | 93.4 ± 0.9% | 
NCc1cccc(CN2CCCCC2)c1 [compound 655, 3‐piperidin‐1‐ylmethyl benzylamine] | 59.2 ± 10.9% | 
O=C(O)CCc1ccccc1O [compound 323, 3‐(2‐hydroxyphenyl)propanoic acid] | 111 ± 8.6% | 
OCc1ccc2[nH]cnc2c1 [compound 170, 1H‐benzimidazol‐5‐ylmethanol] | 98.8 ± 1.6% | 
Fc1ccc(N2CCNCC2)cc1 [compound 457, 1‐(4‐fluorophenyl)piperazine] | 32.3 ± 5.6% | 
c1ccc2c(c1)CCOC2 [compound 110, 3,4‐dihydro‐1H‐benzo[c]pyran] | 109.8 ± 0.6% | 
CC(=O)c1ccc(C#N)s1 [compound 198, 5‐acetylthiophene‐2‐carbonitrile] | 79.6 ± 18.5% | 
CCCc1nccs1 [compound 82, 2‐propyl‐1,3‐thiazole] | 81.1 ± 11.9% | 
CC(C)(C)c1cccc(N)c1 [compound 179, 3‐(tert‐butyl)aniline] | 92.3 ± 14.3% | 
OCc1ccc(Oc2ccccc2)o1 [compound 540, (5‐phenoxy‐2‐furyl)methanol] | 29.9 ± 2.8% | 
O=C(O)[C@H]1CCCN1 [compound 37, D‐proline] | 103 ± 8.2% | 
Cc1ccc(CN)cc1Cl [compound 233, 3‐chloro‐4‐methylbenzylamine] | 27.7 ± 4.2% | 
OCc1ccc(-c2cccnc2)cc1 [compound 489, (4‐pyrid‐3‐ylphenyl)methanol] | 82.7 ± 13.7% | 
NC(=S)c1ccsc1 [compound 148, thiophene‐3‐carbothioamide] | 74.6 ± 6.6% | 
OCc1ccc(-n2cccn2)cc1 [compound 385, [4‐(1H‐pyrazol‐1‐yl)phenyl]methanol] | 78.3 ± 5% | 
COC(=O)c1ccccc1Cl [compound 352, methyl 2‐chlorobenzoate] | 93.2 ± 9.2% | 
OCc1ccccc1Oc1ccccc1 [compound 621, (2‐phenoxyphenyl)methanol] | 45 ± 4.4% | 
OCc1ccc(CN2CCCCC2)cc1 [compound 669, [4‐(piperidin‐1‐ylmethyl)phenyl]methanol] | 72.2 ± 11.3% | 
O=C(O)c1ccc(-c2ccsc2)cc1 [compound 648, 4‐(3‐thienyl)benzoic acid] | 71.2 ± 17.9% | 
CC(=O)CSc1ccc(C)cc1 [compound 460, 1‐[(4‐methylphenyl)thio]acetone] | 34.1 ± 5.3% | 
O=C(O)c1cccc(-c2ccncc2)c1 [compound 614, 3‐pyrid‐4‐ylbenzoic acid] | 41.6 ± 12.5% | 
Clc1ccsc1 [compound 48, 3‐chlorothiophene] | 108 ± 17.8% | 
O=C(O)c1cc2cccnc2s1 [compound 445, thieno[2,3‐b]pyridine‐2‐carboxylic acid] | 97 ± 18.5% | 
OCc1ccc(-c2ccccn2)s1 [compound 556, [5‐(2‐pyridinyl)‐2‐thienyl]methanol] | 128 ± 2.4% | 
Nc1cccc(C(=O)c2ccccc2)c1 [compound 601, (3‐aminophenyl)(phenyl)methanone] | 97.7 ± 12.1% | 
NC(=O)Cc1ccc(O)cc1 [compound 192, 2‐(4‐hydroxyphenyl)acetamide] | 108 ± 16.5% | 

Source: PMC3199943, “Screening the MayBridge Rule of 3 Fragment Library for Compounds That Interact with the Trypanosoma brucei myo-Inositol-3-Phosphate Synthase and/or Show Trypanocidal Activity” (Molecular Biology International, 2011)
